# Laboratory results: the supplement of paper PMC12217912
# The other results are listed elsewhere or left out. The full chains were built here from the parent and the listed change. Inactive controls read about 0.05.
# B1: TEV protease; numbered along this chain (parent)
# chain: MGESLFKGPRDYNPISSSICHLTNESDGHTTSLYGIGFGPFIITNKHLFRRNNGTLVVQSLHGVFKVKDTTTLQQHLVDGRDMIIIRMPKDFPPFPQKLKFREPQREERICLVTTNFQTKSMSSMVSDTSCTFPSGDGIFWKHWIQTKDGQCGSPLVSTRDGFIVGIHSASNFTNTNNYFTSVPKNFMELLTNQEAQQWVSGWRLNADSVLWGGHKVFMVKPEEPFQPVKEATQL
# Variants of: B1
# Assay: raw area under fraction-flipped curve 0-4 h after induction (AUC4h, not background-subtracted), DNA-recorder readout of cleavage of the substrate (dimensionless); higher = more cleavage of the substrate by the protease variant
# Details: temperature: 34 °C; time window: 0-4 h after rhamnose induction
# 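Further: Bxb1 expression induced with 0.2% (w/v) L-rhamnose at OD600 near 0.5, cultures sampled hourly, flipped fraction per protease–substrate barcode pair counted by paired-end Illumina sequencing.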
Variant,area with substrate EILYFQS,area with substrate EVLYFQS,area with substrate ECLYFQS,area with substrate EDLYFQS,area with substrate EHLYFQS,area with substrate ELLYFQS,area with substrate EMLYFQS,area with substrate EPLYFQS,area with substrate ERLYFQS,area with substrate ESLYFQS,area with substrate ETLYFQS,area with substrate EELYFQS,area with substrate EGLYFQS,area with substrate EQLYFQS,area with substrate EWLYFQS
G8Y,0.0809,0.0861,,,,,,,,,,,,,
T233L,0.0852,0.0748,0.0915,0.125,0.0925,0.0931,0.114,0.113,0.0963,0.0926,0.0846,,,,
Q234Y,0.0838,0.0951,0.117,0.125,,0.0793,0.0929,0.116,0.0791,0.106,0.0958,0.0886,0.0843,0.111,
D79P,,0.0965,,0.0995,0.0924,,,,0.121,0.0959,,,,,0.1
